# From the supplement of paper PMC11417369
# ± gives the standard deviation of the averaged measurements. This is one part of the list.
# Tested on: PfAP2-G AP2 domain (GST-tagged)
# Test: gcPBM binding intensity (ln(normalized median fluorescence intensity)); higher = stronger DNA binding
# Summary of the method: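 An Agilent 4 × 180k array carrying primer-extended double-stranded 36-bp intergenic genomic probes and negative controls received GST-tagged P. falciparum DNA-binding domains expressed in E. coli, about 25 μg on average, for 1 h. The binding buffer contained 1× PBS, 1% milk, 0.2 mg/ml BSA, 0.5% salmon testes DNA and 0.03% Triton X-100. Binding intensity is the top Masliner-normalised natural-log median intensity across replicate spots of either probe orientation, read after Alexa488 anti-GST antibody staining and a 488 nm scan.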
row,Sequence,gcPBM binding intensity (ln)
1,AATATATAGCTAAAAACACACAAATATATACGCATA [CACACA_site3608],9.88 ± 0.23
2,CATTATGTCGTAAATACACACATACCTATACATACA [CACACA_site6763],10.3 ± 0.21
3,TTTATATGATATATTACACACAAAAAAAAAAAAAAA [CACACA_site3549],9.67 ± 0.52
4,CTCTTCTATATATAAGCATGCATTCATAATAATTTA [TGCATGCA_site679],9.8 ± 0.071
5,TAGATACTTGTCATGGGTACATATCGTACCTTTTGG [XGTACX_site6781],11.3 ± 0.8
6,ATTTATATATATATAGGTACACATATTTATATATAA [XGTACX_site8487],11.3 ± 1.1
7,AAACCAAGGCACAATAATTAAATAAATAAAATCATG [GTGCAC_negctrl_site574],9.93 ± 0.16
8,TCATTCATATGTTACACACACACACCCACATAAAAA [CACACA_site3245],10.4 ± 0.42
9,CATAATTATGCAATTGCACACAACTATCATTTTTTT [CACACA_site2997],10.16 ± 0.042
10,AAGAGTTAAAAAAATACACACATATATATTTTTTTA [CACACA_site1980],9.85 ± 0.042
11,TATATATAAAAAACATGTACACAAATTTACATACAT [XGTACX_site4777],11.4 ± 0.86
12,TCACTAAACCATTAGAGTACTTGACATATAATGAGC [XGTACX_site3272],11 ± 0.52
13,GATTATATATGAAAATGTACAAATATATATATATAT [XGTACX_site5963],10.8 ± 0.28
14,AAAAAAAAAAAAAAAAAAAAAAAAAAATACATATGT [XGTACX_negctrl_site95],11.1 ± 0.69
15,TTTTTGTATGCTTCCCGACTACATTATGCCATAAAT [CACACA_negctrl_site136],10.2 ± 0.15
16,AAGGTGGGAAAAAATAGTACACAACAAAAATGTATG [XGTACX_site8741],11.7 ± 1
17,TACATTCTAAATATTACACACTTTATAAAATAATAA [CACACA_site4069],9.96 ± 0.35
18,ATATATATAAATATATGTACTAATATATACATATAT [XGTACX_site2289],11 ± 0.69
19,AGAAAAGAGAAATGGGCACACACACCCATATTATAT [CACACA_site8433],10.5 ± 0.41
20,ATATATCTATATGTGTGTACATATAAGTATTTATAT [XGTACX_site5333],11.3 ± 0.86
21,ACATATAAACTGTATACACACAAATATTGCATATAT [CACACA_site6804],10.09 ± 0.021
22,CAAAATATTTAAAAAAGTACTTAAAATAAATTCAAA [XGTACX_site6866],11.4 ± 0.88
23,ATATTTAAATATATTTATATATATAAAAAAAAATAT [GTGCAC_negctrl_site312],9.82 ± 0.13

row,Sequence,gcPBM binding intensity (ln)
1,CCCATGTAATATTAAACACACACTCATATAACACAA [CACACA_site7906],10.1 ± 0.23
2,ATATTATATCTAATCGTGCACAACTGTACATTTGTC,11.1 ± 0.81
3,TTGTATCATATATTATGTACATATTTATTTATTATC [XGTACX_site7723],11.4 ± 0.54
4,AAAAAAATAAAAAATATATAAATAATTAATACATGT [GTGCAC_negctrl_site633],9.57 ± 0.25
5,CACACAACTATCAAGGTGCTAAAATGAAATAATATA [GTGCAC_site9871],9.87 ± 0.071
6,AATATAAATAAAAACACACACACACGGATATTTATA [CACACA_site7134],10.2 ± 0.14
7,ATTATACTTTCCATTCGTACATATATAAATAAATAA [XGTACX_site6245],11 ± 0.61
8,ATATATAGATGTGAATTATTTATATTATCTATTCTT [CACACA_negctrl_site518],9.4 ± 0.23
9,AATATGTTTTACGTCTCACACATATAGGTTTATATT [CACACA_site4713],10.09 ± 0.049
10,CATAAATACAAATATACACACATATTTATATTTATA [CACACA_site7277],9.865 ± 0.035
11,AAAAAGAACACAAAAAGTACAAAAATTATAATGATA [XGTACX_site2676],11.1 ± 0.71
12,AAACTTCAAAAAGAGCACTTGAATTTTTTTTTTTTT [TGCATGCA_negctrl_site133],9.68 ± 0.042
13,ATAAGTATTACTAGTACACACAAGTTGTTAATCCTT [CACACA_site3324],11.3 ± 0.77
14,TATATTATATAATTTTAACACACAAGAATATAAACT [CACACA_site8378],10.2 ± 0.23
15,AACAATAAATTATTATGTACACATATATTATATATA [XGTACX_site4629],11.5 ± 0.98
16,ATATTTTAAAATAATACACACAAAATGATTCTTAAT [CACACA_site2930],10.2 ± 0.15
17,TATTTAAAATAATAACAAAATTAACATAAATATATA [GTGCAC_negctrl_site472],9.635 ± 0.092
18,TTTTTCCTTATTAATACACACATTCACCTTTTAAAT [CACACA_site479],10.3 ± 0.17
19,AGTTGCATACATTGAAGTACAGAACATTTATATATA [XGTACX_site240],11.3 ± 0.89
20,TTAAATTCGTCATTTTAAAATAATACAAAAGTTCAA [CACACA_negctrl_site19],9.88 ± 0.12
21,ATATAATCTGAGTGCACACAAATAAATAAACATACA [CACACA_site422],10.5 ± 0.34
22,TTTTTTTTGTATTTTTCACACACACCGAAGTAAACA [CACACA_site8575],10.4 ± 0.51
23,TAAAAGGATGCATATACACACATATAGATTTATATA [CACACA_site7336],9.915 ± 0.035

row,Sequence,gcPBM binding intensity (ln)
1,TTACGATTTAAAATGGGTACATATATATGAAAAAAA [XGTACX_site545],11.3 ± 0.86
2,CTTATGTGCATACCTACACACTTACCTATATTTATA [CACACA_site7411],10.08 ± 0.014
3,ATTTATAAAATATAATTACATTTTTAAATAATAAAA [GTGCAC_negctrl_site43],9.63 ± 0.099
4,AAAAAAAAAACATACACACACATATAGATTTATATG [CACACA_site6847],9.96 ± 0.028
5,TACACAAAGTTACATACACACTAATATTTACACCAT [CACACA_site6602],10.1 ± 0.071
6,TAAAGAAAAATATAAAGTACAAAAATAAAAAAAATA [XGTACX_site8226],11 ± 0.54
7,TCAAAGTAAAACAGGACATGCACAGAACATCCTGCC [TGCATGCA_site2],10.1 ± 0.24
8,GTATTTATGTGTTTGGTGCAAGGGAGAATTTTTTTT,10.3 ± 0.33
9,TTTATTATGTAAGCATGTACATGATGTATATATTTA [XGTACX_site5021],10.9 ± 0.54
10,ATATATATATATATATGTACATATATTTGTAATGTC [XGTACX_site8074],11.3 ± 0.51
11,TTGTTTGTAAACAGATGTACATATAAAAATATATAT [XGTACX_site3370],11.3 ± 0.91
12,TATATTAGAAAGGATACACACATATATAAATATCTA [CACACA_site6411],9.935 ± 0.007
13,ATCTGTACAGTTTTTGCACACATATAAATAAAAAAA [CACACA_site9198],11.3 ± 1
14,TATTTACAAATAAAAAGTACATAAACTAATATCTTT [XGTACX_site2181],11.3 ± 0.89
15,ATATAAATAAATGTATGTACATATATTTATATGCAT [XGTACX_site4185],11.1 ± 0.62
16,TAAATACTTATATGTACACACATATAGATATATATT [CACACA_site2553],11.4 ± 1
17,CACAGACACGGACACACACACACACCGATATATATA [CACACA_site4353],11.3 ± 0.79
18,ATTTTTTAAAATATTTGTACATATATAATGCATATA [XGTACX_site7026],11 ± 0.64
19,TTATCAAATGAGTGTTGTACGTCTTTTGAAATACCA [XGTACX_site8804],11.5 ± 1.1
20,TTCCCTATATAGAGCATGCACTATATTCAAATGATG,9.96 ± 0.014
21,TTAGATATAAAAGCATGTACTTGTATAAAATATATA [XGTACX_site8272],11.1 ± 0.8
22,ATAAATATTAGCAGTTGTACAATAAATATATGTAAT [XGTACX_site2534],11.2 ± 0.64
23,GAAAAATTGAATTTGGGTACATATAAATATTATATT [XGTACX_site2363],11.3 ± 0.76

row,Sequence,gcPBM binding intensity (ln)
1,AAAATGTTTTTATCCAGTACATAAATATATATATAT [XGTACX_site7398],10.7 ± 0.35
2,TATGAACACCCAAATACACACACTCAAAAAAAAAAA [CACACA_site5466],10.2 ± 0.48
3,TAATTTTTCTTATATAGTACACAAAAAGAAAATTAC [XGTACX_site6393],11.3 ± 0.83
4,TCAGATCCATAGAAGGTGCAAATAACAAAAATACAA [GTGCAC_site9610],10.2 ± 0.35
5,AAGTAATTTATGCATACACACATATATAAATATGTA [CACACA_site7813],10 ± 0.13
6,ATATATATAAAACACACACACACATGTTTTAAAACT [CACACA_site78],10.12 ± 0.078
7,AAAAACTATTGTAGGACACACAAAATTCCAATTTTA [CACACA_site1701],11.2 ± 0.82
8,ATATATATTAGGTATTGTACTTATATGCATATAAGT [XGTACX_site2700],11.3 ± 0.77
9,AATGAATGAATTATTTTGCGCTTATTATAGGACGAA [XGTACX_negctrl_site218],10.1 ± 0.18
10,TCTTTTATGTTTGTTTTTCCCTTTTTTTATGTTCCC [CACACA_negctrl_site1722],9.81
11,AAATAAATGTTATGCATACACACTTTATACCTATTT [CACACA_site3779],10.07 ± 0.057
12,CACAAAAAGAAACACACACACATATATATTTATTAT [CACACA_site3646],9.93 ± 0.099
13,TATATATATATTTATACACACATTAGTGTATACATG [CACACA_site2950],10.3 ± 0.22
14,GACTATTTTAATATTTTACACACCATGTAAAATATA [CACACA_site9050],10.05 ± 0.064
15,ACATAATAAAAAAAACGTACAAATAGGTTTTTCATA [XGTACX_site6645],11.5 ± 0.95
16,TGGGAATAAAAACACACACACACACCGATATATATA [CACACA_site5875],9.91 ± 0.16
17,TATAATAAAAAATGTACACACATAAGAAAATTTAAT [CACACA_site2901],11.3 ± 0.71
18,TTTTTTTATTATTAAAGTACTAAAAAATGAAAACTG [XGTACX_site6758],11.1 ± 0.86
19,AGGTTAAAACATATATATATATATATATATATATAT [XGTACX_negctrl_site333],9.68 ± 0.35
20,TTATACAGGACAATAGTGCACATAAATATATGTATA,10.5 ± 0.33
